Data published in PMC9574860, “Chemical Toolkit for PARK7: Potent, Selective, and High-Throughput” (Journal of Medicinal Chemistry, 2022).
Among all 7,900 compounds or so, about 400 (5.1%) showed an effect of 50% or more. Some of the results follow.

What follows are compounds tested against Parkinson's disease protein 7 (PARK7/DJ1) (human, UniProt Q99497) (assay: primary screen, percent inhibition; read as competition with a fluorescent probe by fluorescence polarization; higher = more effect of the substance). Conditions: 100 µM.
Chain of Parkinson's disease protein 7 (PARK7/DJ1) (Q99497 whole entry, looked up, the tested form may be a part): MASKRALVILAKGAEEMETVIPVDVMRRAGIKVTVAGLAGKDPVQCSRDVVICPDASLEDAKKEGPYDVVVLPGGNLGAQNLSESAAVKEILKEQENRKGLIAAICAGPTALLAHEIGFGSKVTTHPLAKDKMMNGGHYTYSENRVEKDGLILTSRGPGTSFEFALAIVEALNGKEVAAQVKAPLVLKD
Procedure: The screen was conducted using the conditions as described above in 1536-well plates (Corning 3724) with a reaction volume of 8 μL per well. The compound library containing 7887 covalent fragments was purchased at Enamine Ltd. and received as 100 mM DMSO stocks in 384 well LDV Echo plates (Labcyte LP-0200). Stock solutions of 0.26 μM PARK7 and 80 nM JYQ-107 were prepared. Using a Labcyte Echo550 acoustic dispenser, 8 nL of the DMSO stock solution of the library compounds was transferred from the source plates into the empty 1536-well screening plates to obtain a 100 μM final compound concentration. Next, PARK7 (6 μL, final concentration 0.2 μM) was dispensed using a Biotek MultiflowFX liquid dispenser and incubated for 2 h, followed by dispensing the probe JYQ-107 (2 μL, final concentration 20 nM). After 2 h incubation, the FP signal was recorded on a BMG Labtech PHERAstar plate reader (λex/em 480/520 nm). The relative loss of FP signal compared with reference controls was used to calculate the remaining enzyme activity.

First: O=c1c2ccccc2nc(S)n1CC1CCCO1 (stereo not shown)
Second: CCn1c(S)nc2ncccc2c1=O
The Inhibition % of the first is lower: 0.968% for the first, 2.8% for the second.

Compared with `CCN(CC)C(=O)Oc1cccc2ccc(C)nc12.Cl`, `CCOc1ccc(CN(C)C(=O)CCl)cc1` is higher in Inhibition %: 7.91% for the first, 67.6% for the second.

Compared with `OB(O)c1c(F)ccc2c1OCO2`, `C#CC(=O)Nc1cccc(C(=O)O)c1C` is lower in Inhibition %: 11.6% for the first, 8% for the second.

Compared with `Cl.Cn1cc(CCCCl)cn1`, `ClCCc1ncc(-c2ccccc2)o1` is lower in Inhibition %: 6.06% for the first, 4.81% for the second.

Going from `N#CCCN(C(=O)CCl)c1cccc(Cl)c1` to `Cc1cc(NC(=O)CCN(C#N)c2ccccc2)no1`, the Inhibition % falls from 29.3% to 4.15%.

First: CC1(C)OB(c2cccc(Cn3ccnc3)c2)OC1(C)C.Cl
Second: CC1(C)OB(c2ccc3c(c2)C(=O)C(=O)N3)OC1(C)C
The Inhibition % of the first is lower: 4.68% for the first, 17% for the second.

First: COc1ccccc1-c1ccc(C=C(C#N)C(N)=O)cc1
Second: CCNC(=O)C(C#N)=Cc1ccc(OC(F)F)cc1
The Inhibition % of the first is lower: 1.36% for the first, 2.17% for the second.

Going from `Cc1nc(SC2CC(C)OC2=O)nc(C)c1C` (stereo not shown) to `CC1CC(Sc2cnccn2)C(=O)O1` (stereo not shown), the Inhibition % rises from 3.23% to 48.8%.

Compared with `CCOc1cc(C)c(C)cc1S(=O)(=O)n1cccn1`, `CCc1nccn1S(=O)(=O)c1cc(C)ccc1OC` is higher in Inhibition %: 1.55% for the first, 7.61% for the second.

First: C=CC(=O)Nc1n[nH]c2cc(OC)ccc12
Second: C=CC(=O)Nc1ccc2c(c1)CCC(=O)N2
The Inhibition % of the first is lower: 4.97% for the first, 9.43% for the second.

Going from `O=C(CCc1ccccc1)NC1CCN(C(=O)CCl)CC1` to `O=C(CCl)NCc1ccc(C(=O)N2CCCC2)cc1`, the Inhibition % falls from 17.8% to 4.96%.

First: N#CC(=Cc1cccc(O)c1)C(=O)NCc1ccco1
Second: Cc1n[nH]c(C)c1C=C(C#N)C(=O)c1ccccc1F
The Inhibition % of the first is higher: 15.6% for the first, 9.5% for the second.

First: N#Cc1ccc(NCC(O)c2ccc(Cl)c(F)c2)cn1 (stereo not shown)
Second: N#Cc1ccc(NCCNC(=O)c2ccc(Cl)cc2)cn1
The Inhibition % of the first is lower: -3.59% for the first, 5.08% for the second.

Compared with `Cc1ccc(B2OC(C)(C)C(C)(C)O2)c(C#N)c1`, `CC1(c2ccc(B3OC(C)(C)C(C)(C)O3)cc2)CC1` is higher in Inhibition %: -0.714% for the first, 2.29% for the second.

Going from `CC1CN(C(=O)CCN2CCSC2=O)CCO1` (stereo not shown) to `CC1CN(C(=O)CN2CCSC2=O)CC(C)O1` (stereo not shown), the Inhibition % rises from -3.2% to 3.33%.

Compared with `CC(C)(C)c1ccc(C(=O)Cn2cnc(C#N)n2)cc1`, `CC(C)(C)C(=O)Cn1cnc(C#N)n1` is higher in Inhibition %: 4.71% for the first, 8.71% for the second.

First: O=S(=O)(C=Cc1ccccc1)N1CCc2sccc2C1
Second: O=C(O)CCNS(=O)(=O)C=Cc1ccccc1
The Inhibition % of the first is higher: 11.8% for the first, 6.07% for the second.

First: Sc1cnc2ccccc2n1
Second: Cc1nc(S(=O)(=O)Oc2ccccc2F)cn1C
The Inhibition % of the first is higher: 6.61% for the first, 6.3% for the second.

Going from `CCc1ccc(C=CS(=O)(=O)Nc2onc(C)c2C)cc1` to `CCc1nccn1S(=O)(=O)c1ccc(Cl)c(C)c1`, the Inhibition % falls from 4.3% to 1.29%.

Going from `C=CC(=O)N1CCN(C(=O)C(C)(C)C)CC1` to `C=CC(=O)N1CCC(=C(F)F)CC1`, the Inhibition % falls from 7.52% to 1.76%.

Going from `C#Cc1cccc(NC(=O)NC(=O)CCl)c1` to `O=C(CCl)Nc1ccccc1C(F)(F)F`, the Inhibition % rises from 6.09% to 11.7%.

First: CN(CC1CCCCC1)C(=O)CCl
Second: CS(=O)(=O)OCC1CCCC1
The Inhibition % of the first is higher: 50% for the first, -2.46% for the second.

Going from `CN(C)Cc1cccc(SC(=O)N(C)C)c1` to `CN(C)C(=O)Oc1cccc(NC(=O)N2CCOCC2)c1`, the Inhibition % rises from 5.21% to 9.53%.

Going from `O=C(N1CCC2CCCCC2C1)n1ccnc1` (stereo not shown) to `O=C(c1cccnc1S)N1CCOC(C2CCCO2)C1` (stereo not shown), the Inhibition % falls from 11.2% to 2.52%.

Compared with `Cn1c(S)nc2cc(C(=O)O)ccc2c1=O`, `C=CC(=O)N1CCCc2[nH]c3ccc(F)cc3c2C1` is higher in Inhibition %: 4.06% for the first, 71.3% for the second.

First: O=S(=O)(F)c1ccc(Cl)c(S(=O)(=O)F)c1
Second: Cn1ncnc1NS(=O)(=O)c1ccc(S(=O)(=O)F)cc1
The Inhibition % of the first is lower: -3.28% for the first, 5.71% for the second.

First: N#Cc1ccc(NC2CCCCC2O)cn1 (stereo not shown)
Second: COc1ccc(C#N)nc1
The Inhibition % of the first is lower: 5.62% for the first, 6.65% for the second.

Going from `CC(C)Oc1cccnc1C#N` to `N#Cc1ncccc1S`, the Inhibition % rises from 4.58% to 19.2%.

Compared with `COc1ccc(N(C#N)CCCF)cc1`, `CN(C)c1ccnc(C#N)c1` is higher in Inhibition %: 1.89% for the first, 2.64% for the second.

Compared with `Cc1ccc(-n2cnc(Cl)c2C#N)cc1`, `CC(C)(C)c1ccc(S(=O)(=O)n2cccn2)cc1` is higher in Inhibition %: 6.79% for the first, 9.92% for the second.

Compared with `N#Cc1cccc(C(F)(F)F)n1`, `N#Cc1c(N)cc(N)nc1S` is lower in Inhibition %: 8.35% for the first, 8.16% for the second.

Going from `CC(C)(C)OC(=O)N1CCOc2cc(B3OC(C)(C)C(C)(C)O3)ccc2C1` to `Cc1nn(C)c(Cl)c1C=CC(=O)N1CCC(C)(C(=O)O)C1` (stereo not shown), the Inhibition % rises from 3.67% to 7.72%.

Going from `O=C1NC(c2cccs2)C12CCC2` (stereo not shown) to `C=CC(=O)N1CCC(c2cc3ccccc3[nH]2)C1` (stereo not shown), the Inhibition % rises from 5.83% to 13.2%.

First: Cc1cc(Cn2c(-c3ccccc3C)noc2=O)on1
Second: CC(Cl)C1CC(c2ccccc2)=NO1 (stereo not shown)
The Inhibition % of the first is higher: 7.43% for the first, 6.06% for the second.

Compared with `O=C(CCl)NCCOc1ccccc1`, `ClCCCOc1ccccc1` is lower in Inhibition %: 14% for the first, 9.16% for the second.

Going from `Cn1c(=O)ccn(CC(=O)Nc2cccc(S(=O)(=O)F)c2)c1=O` to `CCN1CCN(c2ccc(NC(=O)CCl)cc2)CC1.Cl`, the Inhibition % falls from 99.6% to 37.8%.

Compared with `O=C(CN1CCCCC1C1OCCO1)N1CCCCC1` (stereo not shown), `O=C1OCCC1N1CCOC(Cn2cccn2)C1` (stereo not shown) is lower in Inhibition %: 14.4% for the first, 3.69% for the second.

Compared with `Cc1nc(Sc2nccnc2C#N)sc1C`, `C=CC(=O)Nc1ccnc(OC2CCOC2)c1` (stereo not shown) is higher in Inhibition %: 2.84% for the first, 6.94% for the second.

Compared with `Cn1nccc1C=CC(=O)N1CCCC(C(=O)O)C1` (stereo not shown), `C=CC(=O)N1CCN(c2cccc(F)c2)C(=O)C1` is higher in Inhibition %: 0.394% for the first, 14.2% for the second.

Compound `C=CC(=O)N(C)C1C(C)CCCC1C` (stereo not shown) has an Inhibition % of 5.45%.
